The campaign covered roughly 310,000 compounds. About 2,200 (0.71%) showed an effect of 50% or more. The effect is printed as a negative number. This is one part of the list.
These compounds were tested against human ether-à-go-go-related gene (hERG) potassium channel (human, UniProt Q12809) (assay: primary screen, population patch clamp on CHO cells stably expressing hERG).
Chain of human ether-à-go-go-related gene (hERG) potassium channel (Q12809 whole entry, looked up): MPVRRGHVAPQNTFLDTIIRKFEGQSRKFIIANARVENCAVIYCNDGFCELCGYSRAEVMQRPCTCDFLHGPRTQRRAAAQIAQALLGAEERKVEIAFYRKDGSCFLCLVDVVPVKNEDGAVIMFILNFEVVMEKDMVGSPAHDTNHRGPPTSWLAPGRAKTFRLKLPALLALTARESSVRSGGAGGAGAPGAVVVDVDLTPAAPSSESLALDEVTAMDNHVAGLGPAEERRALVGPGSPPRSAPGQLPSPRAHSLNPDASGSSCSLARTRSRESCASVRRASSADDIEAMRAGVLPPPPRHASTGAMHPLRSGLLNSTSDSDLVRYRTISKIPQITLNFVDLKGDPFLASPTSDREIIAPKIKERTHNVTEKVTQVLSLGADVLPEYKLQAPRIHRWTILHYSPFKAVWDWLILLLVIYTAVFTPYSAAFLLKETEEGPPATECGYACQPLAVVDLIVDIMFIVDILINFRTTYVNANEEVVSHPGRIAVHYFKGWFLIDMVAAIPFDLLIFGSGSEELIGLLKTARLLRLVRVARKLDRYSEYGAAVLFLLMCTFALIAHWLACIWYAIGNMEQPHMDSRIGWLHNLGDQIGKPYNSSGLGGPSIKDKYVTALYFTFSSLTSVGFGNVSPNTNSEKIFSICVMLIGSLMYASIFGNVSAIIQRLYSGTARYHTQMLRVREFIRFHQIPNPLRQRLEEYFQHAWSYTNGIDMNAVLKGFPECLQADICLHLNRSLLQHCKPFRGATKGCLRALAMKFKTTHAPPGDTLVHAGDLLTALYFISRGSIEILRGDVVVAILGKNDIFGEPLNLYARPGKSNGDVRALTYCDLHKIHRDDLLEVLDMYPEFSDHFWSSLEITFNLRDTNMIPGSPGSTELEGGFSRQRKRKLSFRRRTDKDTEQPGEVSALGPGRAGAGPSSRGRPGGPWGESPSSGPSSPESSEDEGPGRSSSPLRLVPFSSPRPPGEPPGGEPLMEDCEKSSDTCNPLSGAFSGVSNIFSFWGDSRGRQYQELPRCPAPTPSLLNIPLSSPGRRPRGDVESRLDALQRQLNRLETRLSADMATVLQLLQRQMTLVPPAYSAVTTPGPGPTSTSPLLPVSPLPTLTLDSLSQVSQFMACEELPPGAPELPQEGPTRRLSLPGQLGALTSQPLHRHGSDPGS

| SMILES | hERG current change (%, negative = inhibition) at 1uM [%] |
| --- | --- |
| Cc1ccc(S(=O)(=O)N(CC(O)CN2CCCC2)c2ccccc2)cc1 (stereo not shown) | -44.8 |
| CC(C)N(Cc1nc(-c2ccccc2)no1)C(=O)C1CCCCC1 | 2.52 |
| Cc1c(C)c2ccc(OC(C)C(=O)NC3CC(C)(C)NC(C)(C)C3)cc2oc1=O (stereo not shown) | 14.3 |
| COC(=O)c1cccc(NC(=O)c2ccc[n+]([O-])c2)c1 | 17.9 |
| COc1ccccc1NS(=O)(=O)c1ccc(C(=O)N2CCN(c3ccccc3)CC2)cc1 | 2.94 |
| Cc1ccc(C(=O)OCC(=O)NCc2cc(C)c(O)c(C)c2)cc1S(=O)(=O)N1CCCCC1 | -13.2 |
| Cc1noc(C)c1S(=O)(=O)N1CCCC(C(=O)Nc2cccnc2)C1 (stereo not shown) | 8.75 |
| O=C(COC(=O)c1ccc(O)cc1O)NCCN1C(=O)CSC1=O | 12.8 |
| O=C(Nc1ccc(Br)cn1)c1cccc(-c2cc3ccccc3oc2=O)c1 | 14.7 |
| O=C(O)c1cccc(-c2ccc3c(c2)OCO3)c1 | 16.2 |
| CC(C(=O)NN=C(c1ccccc1)c1ccccc1)N1CCOCC1 (stereo not shown) | -5.45 |
| C=CCOc1ccc(Br)cc1CNCC.Cl | 3.49 |
| CC(CNC(=O)CCc1nnc2ccc(N3CCC4(CC3)OCCO4)nn12)c1ccccc1 (stereo not shown) | 9.41 |
| N#Cc1c(C(F)(F)F)cc(-c2ccccc2)nc1SCC(=O)N1CCOCC1 | 5.68 |
| COc1ccccc1CNC(=O)c1cc(C2CC2)nc2c1cnn2C(C)C | 7.17 |
| CC(=O)Nc1ccc(S(=O)(=O)NCCC(=O)OCC(=O)c2ccc(Br)cc2)cc1 | -6.19 |
| Cl.c1ccc(Cc2ccc(OCCn3ccnc3)cc2)cc1 | 10.5 |
| CCN(Cc1ccccc1)Cc1cc(OC)cc(OC)c1 | -15.1 |
| O=C1C2CC=C(Cl)CC2C(=O)N1CCCCCCN1C(=O)C2CC=C(Cl)CC2C1=O (stereo not shown) | 2.9 |
| CCN1C(=O)C(=Cc2c(C)n(CC(=O)NCC3CCCO3)c3ccccc23)C(=O)N(CC)C1=S (stereo not shown) | 24.9 |
| CCOC(=O)c1[nH]c2ccccc2c1NC(=O)CC(C)C | 12.2 |
| Cc1ccc(CNc2oc(COc3ccccc3Cl)nc2C#N)cc1 | 12 |

| SMILES | hERG current change (%, negative = inhibition) at 1uM [%] |
| --- | --- |
| Cn1c(C(=O)O)c(CC(=O)Nc2ccc(F)cc2F)c2ccccc21 | 1.29 |
| Cn1c(C(C#N)C(=O)c2sc3ccccc3c2Cl)nc2ccccc21 (stereo not shown) | 11.6 |
| C=CCn1c(N2CCN(c3ccc(OC)cc3)CC2)nc2c1c(=O)[nH]c(=O)n2C | -4.37 |
| CC(C(=O)N1CCOCC1)N1c2cccc3cccc(c23)S1(=O)=O (stereo not shown) | 9.87 |
| O=C(Nc1ccc(Oc2ncccn2)cc1)c1ccco1 | 12.1 |
| O=C(NCCc1c[nH]c2ccccc12)c1ccc(S(=O)(=O)NCc2ccco2)cc1 | 12.3 |
| C=CCNC(=O)c1ccccc1NC(=O)c1ccc(Cl)c(S(=O)(=O)Nc2ccccc2)c1 | 5.68 |
| CCCn1nc(C(=O)NNC(=O)CCCOc2ccc(C)cc2)c2ccccc2c1=O | -2.89 |
| CN(Cc1ccc(Cl)c(Cl)c1)C(=O)C1=CC=CN2CCS(=O)(=O)N=C12 | 8.22 |
| COc1cc(OC)c(OC)cc1/C=N/NC(=O)c1cc(-c2cccn2C)n[nH]1 | -11.6 |
| O=C(c1ccco1)N1CCN(C(=O)c2cnn3cccnc23)CC1 | 13.5 |
| O=C(c1cc2ccccc2oc1=O)N(Cc1cccs1)Cc1cccs1 | -8.26 |
| COc1ccc(Oc2nc(SC)nc3ccccc23)cc1 | 2.03 |
| O=C1C(=O)N(c2ccccc2)c2ccccc21 | -4.46 |
| N#CC(C#N)=Cc1ccccc1OCc1ccccc1 | 14.3 |
| C/C=C/C(=O)N1CC2(CC(c3cccc(NC(=O)CC)c3)=NO2)C[C@H]1C(N)=O (stereo partly shown) | -5.78 |
| Cc1ccc(C)c(NC(=O)C(Sc2nnc(-c3cccs3)o2)c2ccccc2)c1 (stereo not shown) | 6.04 |
| O/N=C1\CCc2cc(Cl)ccc21 | -3.06 |
| O=C1c2ccccc2C(=O)N1CCC(=O)N1CCCc2ccccc21 | 3.54 |
| O=C(NCC1CCCO1)C1CCCN(Cc2cnn(-c3ccccc3)c2-n2cccc2)C1 (stereo not shown) | 5.23 |
| CCN(C(=O)c1ccc2c(=O)n3c(nc2c1)CCCCC3)c1ccccc1C | 11.6 |
| O=Cc1ccc(O)cc1O | 1.69 |

| SMILES | hERG current change (%, negative = inhibition) at 1uM [%] |
| --- | --- |
| Cc1cc(N)n(Cc2ccc(Cl)cc2)n1 | 20.6 |
| CCOc1ccc(C(=O)Nc2ccc(N3CCN(C)CC3)cc2)cc1[N+](=O)[O-] | -7.79 |
| COC(=O)c1cc(NS(=O)(=O)c2ccc(NCc3cccnc3)c(N)c2)cc(C(=O)OC)c1 | -2.44 |
| CC(C)(C)c1ccc(OCC(=O)NCCN2CCOCC2)cc1.Cl | 11.6 |
| CCOC(=O)C(C)c1c(C(=O)c2ccc(C)nc2)c2ccccc2n1C (stereo not shown) | 11.4 |
| CCOC(=O)CC(C(=O)OCC)P(=O)(c1ccccc1)c1ccccc1 (stereo not shown) | 7.84 |
| CSc1ccc(CN2CCN(S(=O)(=O)Cc3ccccc3)CC2)cc1 | 8.23 |
| CN1CCN(C(=S)NC(=O)/C=C/c2cccs2)CC1 | 4.13 |
| CSc1nccc(-c2c(-c3ccc(Cl)cc3)noc2C)n1 | 7.37 |
| CC(=O)Nc1cccc(Oc2cnc3ccccc3n2)c1 | -2.79 |
| Cc1c(S(=O)(=O)N2CCCC(C)C2)c(=O)n(C)c(=O)n1C (stereo not shown) | 3.4 |
| O=C(N=Nc1c(O)[nH]c2ccc([N+](=O)[O-])cc12)c1ccccc1Cl | 10.8 |
| CCOc1cc(C2C(C(=O)O)c3cc(OCC)c(OCC)cc3C(=O)N2C)ccc1O (stereo not shown) | 9.86 |
| CCCN1CCN(C(=O)c2ccc3nc(CC)c(CC)nc3c2)CC1 | 13.6 |
| O=C(NCc1ccccc1)N1CCC(c2nc3ccccc3[nH]2)CC1 | 0.621 |
| CC1CC(C)(C)N(C(=O)CN2C(=O)c3ccccc3C2=O)c2ccccc21 (stereo not shown) | 11.2 |
| CC(=O)Nc1ccc(OCC(=O)NCCc2ccc(Cl)cc2)cc1 | 10.9 |
| Cc1ccccc1Oc1cc(-n2ncc(Cl)c(Cl)c2=O)ncn1 | 10.4 |
| COc1ccc(N2CCN(C(=O)CCc3ccc(S(=O)(=O)NCC(C)C)cc3)CC2)cc1 | -6.73 |
| CN(C)S(=O)(=O)c1cc(NC(=O)COC(=O)Cc2ccc(Cl)cc2Cl)ccc1Cl | 7.82 |
| COc1ccccc1CNC(=O)C1CCCN1S(=O)(=O)c1cccc2cccnc12 (stereo not shown) | -2.06 |
| O=C(NCCCN1CCCC1)c1ccc2c(c1)N(Cc1ccccc1F)C(=O)c1ccccc1S2=O (stereo not shown) | -2.51 |

| SMILES | hERG current change (%, negative = inhibition) at 1uM [%] |
| --- | --- |
| COc1cccc(C(=O)COc2ccc3c(C)cc(=O)oc3c2)c1 | 1.14 |
| Clc1ccc(OCc2cc(-c3ccccc3)no2)cc1Cl | 16.2 |
| Oc1ccccc1CNc1ccc(Br)cn1 | 9.74 |
| Cc1ccc(-c2c3c(=O)n(C)c(=O)n(C)c3cn2N2CCOCC2)cc1 | -25.1 |
| COc1ccc(NC(=O)CN(c2ccc(C)cc2)S(C)(=O)=O)c(OC)c1 | 4.53 |
| O=C(N/N=C/c1ccc([N+](=O)[O-])cc1)c1cc(C2CC2)[nH]n1 | -0.365 |
| COc1cccc(-c2cc(C(=O)NCc3ccco3)no2)c1 | 10.1 |
| O=C(NCCCc1ccccc1)C1CC1 | 17.2 |
| Cc1cc(C)n2ncc(C(=O)NCCc3ccccc3)c2n1 | 4.72 |
| CC(=O)C1=C(C)Nc2ncnn2C1c1ccc(F)cc1 (stereo not shown) | 16.7 |
| Cc1ccc(S(=O)(=O)NCCNc2ccccc2[N+](=O)[O-])cc1 | 9.2 |
| Cc1ccc(S(=O)(=O)N(C)C)cc1-n1c(SCC(=O)N(C)C)nc2ccccc2c1=O | 8.88 |
| CC(C)(C)C(=O)N1CCN(c2ccc([N+](=O)[O-])cc2Cl)CC1 | -5.53 |
| COc1ccc(-c2c(C)n([O-])c3c([n+]2=O)CCCC3)cc1 | 5.38 |
| CCOc1ccc(CCNC(=O)c2cn(C)c3ccc(S(=O)(=O)N4CCOCC4)cc3c2=O)cc1OCC | 10.1 |
| Nc1ccc(Oc2ccc(Cl)cc2)cc1 | 27.1 |
| NC(=O)c1nsc(C(=O)N(Cc2cccnc2)C(C(=O)NC2CCCCC2)c2ccc(F)cc2)c1N (stereo not shown) | 8.14 |
| CCOC(=O)CSc1nc2c(c(-c3ccc(C)o3)c1C#N)CCCC2 | 10.1 |
| O=C(COc1nncc2ccccc12)NCC(F)(F)F | 15.6 |
| Cc1cccc(/C=N/NC(=O)c2ccc(NC(=O)c3ccc(F)cc3)cc2)n1 | 9.8 |
| Cn1nc(C(=O)OCc2ccc(Br)cc2F)c2ccccc2c1=O | 12 |
| COC(=O)c1c(C)oc(C)c1S(=O)(=O)NC(c1ccccc1)c1ccccc1 | 17.8 |

Source: article PMC4336329 (PLoS ONE, 2015)
